78 sequences from the supplement of paper PMC10126150 can be followed below.

The test system of this series is ATP. Briefly: switch fluorescence ratio, 500 uM ATP over buffer (Cy3 cluster intensity, sum of 5 cycles each) (fold (ratio)); higher = stronger signal-on switching upon ATP binding; sequences stand for … in TCGTCGGCAGCGTCAGATGTGTATAAGAGACAGTTTTTTTTTTTTTTTTTTTTTTTTT…TC. Particulars: aptamer strand: ATP DNA aptamer (quencher-CACCTGGGGGAGTATTGCGGAGGAAGG + anchor), 100 nM annealed; ATP concentration: 500 uM; one replicate. In a few lines:
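After annealing to 100 nM quencher-labelled ATP aptamer, Cy3-labelled switching-strand clusters on a modified Illumina MiSeq flow-cell were imaged in selection buffer. A second image followed after 15 min with 500 uM ATP at 22 °C, and five such buffer/ATP cycles were done, each separated by NaOH stripping and re-annealing. The fluorescence ratio, averaged per switch-domain sequence, is summed target-cycle over summed buffer-cycle Cy3 intensity per cluster, with clusters outside 100-1000 RFU excluded.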

Sequences with one replicate were seen in a single cluster, so their values are uncertain.
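Further: ATP exposure 15 min at 22 °C before imaging.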

Take TTGTGTTAAC: the switch fluorescence ratio stood at 1.03.
Next, TTGTGACAG: 0.98; CCCTGAGCGC: 1.03.
Next, CACTACTTTT: 1.02.
The figure for AACGAAGTCC is 1.05.
For the sequence ACCGGGAGCG, the switch fluorescence ratio was 1.05.
Next, TATCTAGTAA: 1.04.
Next, ACCGGGGTAG: 1.04; ACTCTTACGA: 1.15.
The figure for CGGAGCGCTA is 1.42.
For the sequence TATGCGCAA, the switch fluorescence ratio came to 4.29.
The figure for GCTCGATGCC is 1.
The figure for AGAGAAGAAA is 0.947; for CCCGTCTGGC it is 1.09; for GTTCCTACCG it is 1.38.
Next, CCAGCTGGTG: 1.14; TTTGCGCTGT: 1.2; TGGTTTGAGT: 1.02.
Regarding CGTTTAATGA, the switch fluorescence ratio was 1.02.
The figure for AAGATGGTAA is 1.05.
Next, GCAGCTATGT: 1.08; AGGTTTCGCA: 0.965.
For the sequence TATCCTCTAT, the switch fluorescence ratio was determined as 1.2.
The figure for TAGTTCAATT is 0.941; for TGTCAGTGTT it is 0.988; for CAAATCCGTA it is 0.975.
As for GTTTGGATCA, the switch fluorescence ratio is 1.02.
Next, CGGTAGCATA: 1.75; GTGGTCTATG: 0.998; TAACGTGTCT: 0.946.
Regarding CGAGCACTGA, the switch fluorescence ratio turned out to be 1.16.
Next, TACGTTGATG: 1.02; CTGAACAAAT: 1.03; ATATATTTTT: 0.953.
The figure for ATGGAGGAAT is 1.16; for ATCGACTAGC it is 0.963; for CGCCGATATG it is 1.06.
For the sequence AGTTCATGCG, the switch fluorescence ratio amounted to 1.04.
As for GGTAACCTTC, the switch fluorescence ratio came out at 2.4.
Consider TGCATGTAAT, for which the switch fluorescence ratio came out at 1.01.
The figure for GTGGATTTCG is 1.02; for GAATGGACCT it is 1.21.
Take CTAGTAAAAT: the switch fluorescence ratio was 1.07.
As to TACGGGGCAC, the switch fluorescence ratio is 1.02.
The figure for GACTCGCGCG is 0.975; for GCTGCCTTTT it is 1.01; for GGCTTATGG it is 0.981.
The figure for ACAAAGGACG is 0.929; for GATCTCTTTG it is 0.973.
Next, ATGCTGTGGC: 0.989; TTATGGTCTT: 1.02.
Take AAGGCCAGGA: the switch fluorescence ratio worked out at 1.01.
CAAGCAGC: the switch fluorescence ratio was found to be 1.05.
The figure for AGTCCCGCAT is 2.47; for GTAGTTGTTT it is 0.957; for ATAAGATTAG it is 0.977.
On to ACTAGGTACG, for which the switch fluorescence ratio was 1.05.
Next, GCGTTGAATA: 0.97; GGGTCAGGCA: 0.988.
TGCCGTAT: the switch fluorescence ratio was 0.982.
The figure for AACCATGGGC is 0.955; for TTCGTCCTG it is 1.01; for GCGACATTGG it is 0.989.
The figure for TAATTGTAA is 0.957.
For the sequence TTGTACAATT, the switch fluorescence ratio was 1.01.
Next, AATGAGATGC: 0.979.
The figure for TGTTTACTCC is 1.16; for ACGCGTTTTC it is 1.02.
Next, ATAAGGAGCT: 0.988; TGAAACGTTG: 0.948; GGAGTGGTAA: 1.65.
Consider AGACTTCGA, for which the switch fluorescence ratio came out at 1.06.
With GGGCACGAGC, the switch fluorescence ratio worked out at 1.02.
In the case of ATGTTGATAG, the switch fluorescence ratio came out at 1.03.
In the case of TGGAGTGTTA, the switch fluorescence ratio came out at 1.01.
As to TGTGGCAGCG, the switch fluorescence ratio is 1.1.
Next, TTAAGATTGT: 0.999.
CTGAACTGGG: the switch fluorescence ratio worked out at 0.983.
